Measurements as given in PubChem BioAssay AID1347073 (National Center for Advancing Translational Sciences (NCATS), 2019).
Among all 45,000 compounds or so, about 200 (0.44%) were called active. Inconclusive results (about 7%) are left out. Calls follow the shape of the dose curve; as a rule, active = well fitted activation curve with a large enough effect; inconclusive = small, poorly fitted or top-dose-only effect; inactive = no such curve, though single readings can be large or run the other way. The list shows a part of the results.

experiment: qHTS of TDP-43 Inhibitors: NCGC Sytravon Library Screen; conditions: yeast TDP-43 toxicity rescue, BacTiter-Glo growth, 24 h; series mostly up to 46.1 µM; growth rescue (activation): at the top concentration; also: nearly all actives have a fitted effect of over 55% in size; as to growth rescue (activation): 0% is about no effect
Summary of the method: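 TDP-43-expressing yeast, pregrown in raffinose, seeded at OD600 0.02 in galactose medium with compound for 24 hr at 30 deg C. Growth read by BacTiter-Glo luminescence, so rescue of toxicity appears as activation.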
Potency is read from the fitted curve at half-maximal effect.

Row | SMILES | growth rescue (activation) | Potency
1 | C=CCn1c(SCC(=O)Nc2ccc(F)cc2)nc2cc(C(=O)O)ccc2c1=O | inactive: 3.92% | –
2 | CC(C)c1ccc(NC(=O)N2CCN(c3ccc(Cl)c(Cl)c3)CC2)cc1 | inactive: 13.7% | –
3 | O=C(C1=C(O)C(=O)N(CC2CCCO2)C1c1ccccc1[N+](=O)[O-])c1ccco1 (configuration not stated) | inactive: -1.31% | –
4 | COc1ccc(S(=O)(=O)c2ccc(OCC3CO3)cc2)cc1 (configuration not stated) | inactive: 16.4% | –
5 | CCC(COC(=O)Nc1ccccc1)NC(=O)OC(C)C (configuration not stated) | inactive: -14% | –
6 | Cc1c(NS(=O)(=O)c2cccc(C(=O)N3CCC(C(N)=O)CC3)c2)c(=O)n(-c2ccccc2)n1C | inactive: -7.08% | –
7 | CCOC(=O)N=Nc1c(O)n(CC)c2ccccc12 | inactive: 19.6% | –
8 | Cc1ccc(CN2CCN(Cc3cn[nH]c3-c3ccccc3)CC2CCO)o1 (configuration not stated) | inactive: -0.374% | –
9 | CCOC(=O)c1c(C)[nH]c(C(=O)COC(=O)/C=C/c2ccc(O)c(OC)c2)c1C | inactive: 6.37% | –
10 | Nc1nnc(SCC(=O)NNC(=O)c2ccccc2F)s1 | inactive: -5.76% | –
11 | Cn1c(C(=O)O)c(CC(=O)Nc2ccccc2F)c2ccccc21 | inactive: 7.39% | –
12 | CC1(C(=O)NS(=O)(=O)c2cccc(F)c2)CCN1C(=O)Cc1cccs1 (configuration not stated) | inactive: -5.77% | –
13 | CN(C(=O)COC(=O)/C=C/c1cccc([N+](=O)[O-])c1)C1CCS(=O)(=O)C1 (configuration not stated) | inactive: 9.6% | –
14 | CC(NC(=O)CN1C(=O)NC2(CCCC2)C1=O)c1ccc(Cl)cc1Cl (configuration not stated) | inactive: 9.79% | –
15 | COCCN(C(=O)CSc1nnc(C)n1-c1ccccc1)c1c(N)n(Cc2ccccc2)c(=O)[nH]c1=O | inactive: 18.6% | –
16 | O=C(Nc1ccc(C(=O)N2CCOCC2)cc1)Nc1cccc2ccccc12 | inactive: -9.82% | –
17 | CCOC(=O)c1c2ccc(OCC(=O)N/N=C/c3ccc(C)cc3)cc2n2ccccc12 | inactive: 10.4% | –
18 | O=C(Cc1ccccc1)N1CCN(S(=O)(=O)c2ccc([N+](=O)[O-])cc2)CC1 | inactive: 2.44% | –
19 | O=C(CCC(=O)N/N=C/c1ccc(Br)o1)N/N=C/c1ccc(Br)o1 | inactive: 1.02% | –
20 | O=C(Nc1ccccc1)Nc1cccc2ccccc12 | inactive: 11.6% | –
21 | CC1=NN(c2ccccc2)C(=O)C1N=Nc1cccc(O)c1 (configuration not stated) | inactive: 0.702% | –
22 | Cc1nnc(NC(=O)c2cc3ccccc3o2)s1 | inactive: 14% | –

Row | SMILES | growth rescue (activation) | Potency
23 | CN(C)CCCN(Cc1cc2cc3c(cc2[nH]c1=O)OCO3)C(=S)NCc1ccco1 | inactive: 3.99% | –
24 | Cc1ccc(S(=O)(=O)N2CCCC2C(=O)Nc2ccc(Br)cc2)cc1 (configuration not stated) | – | active: 12.6 µM
25 | COc1cc(CN2CCNC(=O)C2CC(=O)N2CCCO2)cc(OC)c1 (configuration not stated) | inactive: -18.4% | –
26 | O=C(O)/C(=C\c1cccs1)Sc1nnc(-c2ccc(F)cc2)o1 | inactive: 11.2% | –
27 | COc1c(C)cc(C(=O)C2CCCN(C(=O)Cn3ccc(C)n3)C2)cc1C (configuration not stated) | inactive: 11.4% | –
28 | O=C(O)c1cccc(NS(=O)(=O)c2ccc3c(c2)OCCCO3)c1 | inactive: 7.47% | –
29 | O=C(O)c1cccc(-c2csc(C(O)c3ccc(F)cc3)n2)c1 (configuration not stated) | inactive: 12.9% | –
30 | C=CCOc1c(Br)cc(CNn2cn[nH]c2=S)cc1OC | inactive: 17.9% | –
31 | CC(=O)C1=C(O)CC(C)(C)CC1=NCc1nc2ccccc2[nH]1 | inactive: 8.75% | –
32 | CCNC(=O)NC(=O)C(C)OC(=O)C1CCN(S(=O)(=O)c2ccccc2F)CC1 (configuration not stated) | inactive: 0.406% | –
33 | O=C(C(O)c1ccccc1)N1N=C(c2ccccc2)CC1(O)C(F)(F)F (configuration not stated) | inactive: -5.44% | –
34 | N#Cc1nc(-c2ccco2)oc1NCCc1ccccc1 | inactive: -15.5% | –
35 | CCOc1ccc(-n2c(C)cc(C(=O)NS(=O)(=O)c3ccc(C)cc3)c2C)cc1 | inactive: -12.8% | –
36 | Cc1[nH]nc2c1C(c1ccsc1)C1=C(CC(C)(C)CC1=O)N2 (configuration not stated) | inactive: -20.1% | –
37 | Cc1sc2ncn(CC(=O)NCC(=O)N3CCN(c4ccc(F)cc4)CC3)c(=O)c2c1C | inactive: 12.8% | –
38 | COc1ccccc1NS(=O)(=O)c1ccc(C)c(C(=O)NC2CCN(Cc3ccccc3)CC2)c1 | inactive: 0.345% | –
39 | Cc1nc2scc(-c3ccc(C(C)(C)C)cc3)c2c(=O)n1N | inactive: 22.6% | –
40 | CN1C(=O)C(CC(=O)Nc2ccc(Cl)cc2)N(Cc2ccco2)C1=S (configuration not stated) | inactive: 18.1% | –
41 | CC[n+]1c(/C=C2\C=C(C)CC(C)C2)sc2ccccc21 (configuration not stated) | inactive: 12.7% | –
42 | CC(C)c1ccc(C(=O)Nc2cccnc2)cc1 | inactive: 20.3% | –
43 | Cc1cc(C)n2c(Br)c(CN3CCCC(C)C3)nc2n1 (configuration not stated) | inactive: 4.42% | –
44 | O=S(=O)(c1ccc(NCCCO)nc1)N1CCOCC1 | inactive: 15.5% | –

Row | SMILES | growth rescue (activation) | Potency
45 | CC1CC(C)(C)CC2(C1)NC(=O)N(CC(=O)N(C)Cc1nc3ccccc3c(=O)[nH]1)C2=O (configuration not stated) | inactive: 1.91% | –
46 | O=C(O)c1ccc2c(c1)C(=O)N(c1ncccn1)C2=O | inactive: 1.15% | –
47 | Cc1ccccc1-c1nc(-c2ccccn2)no1 | inactive: -39.8% | –
48 | S=C(Nc1ccccc1)N1CCN(Cc2ccccc2)CC1 | inactive: -9.05% | –
49 | COc1ccc(CNc2nc(-c3cccnc3)nn2C(=O)C(C)C)cc1 | inactive: 6.54% | –
50 | COc1ccc(NC(=O)NNC(=O)c2ccccc2-n2cccc2)cc1OC | inactive: 19% | –
51 | CC#CC(=O)N1CCC(Oc2cccc(C(=O)NCc3ccccn3)c2)CC1 | inactive: 8.95% | –
52 | CCCN1C(=O)COc2ccc(C(=O)c3ccccc3C(=O)O)cc21 | inactive: 7.13% | –
53 | CCNC(=S)NNc1nc(N2CCOCC2)nc(N2CCOCC2)n1 | inactive: -18% | –
54 | Cc1cc(C)cc(OCc2nnc(N)s2)c1 | inactive: -7.07% | –
55 | Cc1ccc(NC(=O)C2C3C=CC(O3)C2C(=O)O)cc1C (configuration not stated) | inactive: 5.55% | –
56 | N#C/C(=C\c1ccc(F)cc1)c1nc(-c2ccco2)cs1 | inactive: 15.1% | –
57 | Cc1ccc(C)c(S(=O)(=O)N2CCN(C(=O)[C@H](Cc3ccccc3)NC(=O)c3ccco3)CC2)c1 | inactive: -2.87% | –
58 | Cc1cc(C)cc(Cn2c3ccc(NC(=O)NCc4ccc(F)cc4)cc3c(=O)n2C)c1 | inactive: 17.5% | –
59 | CC(NC(=O)C1CCN(C(=O)c2ccc(F)cc2)CC1)c1ccc(S(N)(=O)=O)cc1 (configuration not stated) | inactive: 5.53% | –
60 | CCOc1cc(NC(=S)NCCCN2CCOCC2)c(OCC)cc1NC(=O)C(C)C | inactive: -14.8% | –
61 | Oc1cccc(C(O)CNCc2ccc(-c3ccccc3)cc2)c1 (configuration not stated) | inactive: -0.88% | –
62 | COc1ccc(NC(=O)CN2CCC(C(=O)c3ccc(F)cc3)CC2)c(OC)c1 | inactive: 17.6% | –
63 | Cc1onc(-c2ccccc2Cl)c1C(=O)N1CCOC12CCCCC2 | inactive: 17.8% | –
64 | Cc1cc(C)c2cc(C#N)c(N3CCCN(C(=S)NCCCN(C)C)CC3)nc2c1 | inactive: 3.5% | –
65 | Cc1nc2scc(-c3ccccc3)c2c(=O)n1/N=C/c1ccco1 | inactive: 3.54% | –
66 | O=C(CNC(=O)c1ccc(Cl)cc1)N/N=C/c1cccnc1 | inactive: 3.46% | –

Row | SMILES | growth rescue (activation) | Potency
67 | CN1CCN(c2ccc(S(=O)(=O)N3CCCCC3)cn2)CC1 | inactive: 0.726% | –
68 | CN(c1ccccc1)S(=O)(=O)c1cccc(NC(=O)CSc2n[nH]c(N)n2)c1 | inactive: 36.1% | –
69 | CCn1c(CNC(=O)c2ccco2)nnc1SCCOc1ccccc1 | inactive: 4.66% | –
70 | O=C(CC1NC(=S)NC1=O)c1ccc(Cl)cc1 (configuration not stated) | inactive: -4.63% | –
71 | CCOC(=O)C1(CC2CCCCO2)CCN(Cc2c(C)cc(C)cc2-n2cccn2)CC1 (configuration not stated) | inactive: -6.79% | –
72 | CCCCNC(=O)C1(C)CCCCN1C(=O)c1c(F)ccc(C)c1F (configuration not stated) | inactive: 17.3% | –
73 | COC(=O)c1c(-c2ccc(C)cc2)csc1NC(=S)NC(=O)c1ccc(F)cc1 | inactive: -0.671% | –
74 | COc1ccc(C(NC(=O)c2ccc(=O)[nH]c2)C(=O)Nc2ccc(C(C)C)cc2)cc1 (configuration not stated) | inactive: 5.51% | –
75 | CN(Cc1nc2ccccc2c(=O)[nH]1)C(=O)c1cc2c(s1)CCCCC2 | inactive: -4.57% | –
76 | Cc1ccc(OCCC(=O)NCCc2ccc(S(N)(=O)=O)cc2)cc1 | inactive: -6.36% | –
77 | Cc1ccccc1NC(=O)NC1(C(=O)N2CCN(C)CC2)CCCCC1 | inactive: 3% | –
78 | Cc1nc(Cl)c(C(=O)NCc2ccccc2)c(C)c1[N+](=O)[O-] | inactive: -8.24% | –
79 | COc1ccc(C(=O)Nc2ccc(S(=O)(=O)Nc3ncccn3)cc2)cc1OC | inactive: 4.07% | –
80 | CCn1c(SCC(=O)NCCc2ccccc2)nnc1-c1ccco1 | inactive: 4.55% | –
81 | COCc1cc(C)nc2sc(C(=O)Nc3ccccc3Br)c(N)c12 | inactive: 12.2% | –
82 | O=c1cc(/C=C/c2c(F)cccc2Cl)[nH]c2ccccc12 | inactive: -5.73% | –
83 | COc1ccc(CC(=O)OCC(=O)Nc2ccc(F)cc2)cc1 | inactive: 13.9% | –
84 | COc1cccc(C(O)c2nc(-c3cnn(C)c3)cs2)c1 (configuration not stated) | inactive: 15.7% | –
85 | O=C(Nc1ccc(OC(F)F)c(Cl)c1)c1ccccn1 | inactive: -0.422% | –
86 | CCS(=O)(=O)N1CCC(NC(=O)C(Cc2cc(OC)ccc2OC)NC(C)=O)CC1 (configuration not stated) | inactive: 2.19% | –
87 | Nc1c(Cl)ncnc1N/N=C/c1ccccn1 | inactive: -70.4% | –
88 | CN(C)S(=O)(=O)c1cccc(NC(=O)c2ccc(COc3ccccc3)cc2)c1 | inactive: 3.91% | –

Row | SMILES | growth rescue (activation) | Potency
89 | COc1ccc(CCCC(=O)N/N=C\c2cccs2)cc1 | inactive: 12.7% | –
90 | COc1ccc(NC(=O)/C=C/c2cc(Br)ccc2OC)cc1 | inactive: -32.1% | –
91 | Cc1ccc(NC(=O)CN2C(=O)NC(C)(c3ccc4c(c3)OCO4)C2=O)cc1 (configuration not stated) | inactive: 8.77% | –
92 | CCc1nnc(NC(=O)c2ccc3c(=O)n4c(nc3c2)CCCCC4)s1 | inactive: -1.71% | –
93 | O=S(=O)(c1ccccc1)n1nc(-c2ccc(Cl)cc2)nc1NCc1ccccc1 | inactive: 18.7% | –
94 | O=[N+]([O-])c1cc(/C=N/Nc2nc3ccccc3[nH]2)c(O)cc1O | inactive: -26.6% | –
95 | CC(=O)Nc1ccc(C(=O)CSc2nnnn2C2CCCC2)cc1 | inactive: -6.79% | –
96 | Cn1cccc1C(=O)NCc1ccc(S(N)(=O)=O)cc1 | inactive: 19.6% | –
97 | COc1ccc(CN(CC(=O)NC2CCCC2)C(=O)CCC(=O)Nc2nc(C)cs2)cc1 | inactive: 1.51% | –
98 | COc1cc(NC(=O)C2CCCCC2)c(OC)cc1NC(=O)c1ccccc1 | inactive: 16.7% | –
99 | O=C1c2ccccc2NC(c2ccncc2)N1c1ccccn1 (configuration not stated) | inactive: 24.7% | –
100 | Cc1ccsc1C(=O)N1CCC1(C)C(=O)NS(=O)(=O)c1cccc(F)c1 (configuration not stated) | inactive: 0.292% | –
101 | COc1ccc(C(=O)Nc2ccc(NC(=O)c3ccco3)cc2)cc1 | inactive: -12.6% | –
102 | Cc1cccc(C(=O)Nc2ccc(N3CCN(C(=O)c4ccco4)CC3)cc2)c1 | inactive: 17% | –
103 | Cc1cc(NC(=O)CSc2nc3cc(Cl)ccc3o2)no1 | inactive: 21.6% | –
104 | Cc1ccccc1N1CCN(C2CCCN(C(=O)CCn3cnnn3)C2)CC1 (configuration not stated) | inactive: 3.06% | –
105 | CCCCN(C(=O)CCC(=O)Nc1cc(C)on1)C(C(=O)NC1CCCC1)c1ccc(F)cc1 (configuration not stated) | inactive: 5.52% | –
106 | NNC(=O)Cn1cnc2ccccc21 | inactive: 11.2% | –
107 | COc1ccc(/C=C/C(=O)c2cc(Cl)cc(Cl)c2O)c(OC)c1 | inactive: 14.2% | –
